This is an account of results in PubChem BioAssay AID1963973 (Molecular Pharmacology Branch, DTP, NCI, 2024).

A number of entries come with more than one value. They are shown here; other results are not. The source may hold further records. The records of an entry repeat one measurement in other runs, samples, wells, individuals or studies. Some results are limits rather than exact numbers.

The assay deals with 883617-216-R-J1-PDC tumor spheroids, viability. In words: Anticancer human tumor 883617-216-R-J1-PDC patient-derived bladder carcinoma cell line growth inhibition [PI3K]. The conditions noted are these: spheroids with HUVEC and MSC; for IC50: compound alone; for viability, T/C: stronger effect = lower value. The text has this: Combinatorial screen of targeted agents with the PI3K inhibitors inavolisib, alpelisib, duvelisib, and copanlisib in multi-cell type tumor spheroids
A high-throughput screen of multi-cell type tumor spheroids was designed to identify active combinations of targeted small molecules and PI3K pathway inhibitors. Complex spheroids include a stromal component modeled by human endothelial cells (HUVEC) and fibroblasts modeled by human mesenchymal stem cells (MSCs). The concentration ranges selected for each drug and investigational agent were based upon clinically achievable concentrations if the clinical Cmax of the agent was known.
Compounds. The drugs and investigational agents: inavolisib (NSC800729), alpelisib (NSC765974), duvelisib (NSC772469), copanlisib (NSC816437), ipatasertib (NSC767898), afuresertib (NSC778305), talazoparib (NSC767125), sapanisertib (NSC764658), selumetinib (NSC741078), tovorafenib (DAY101, NSC766906), vemurafenib (NSC761431), ravoxertinib (NSC781343), sotorasib (NSC818433), MRTX1133 (NSC 836407), abemaciclib (NSC 768073), palbociclib (NSC758247), venetoclax (NSC 766270), SY5609 (NSC837396), enzalutamide (NSC755605), and darolutamide (NSC825331), were obtained from the National Cancer Institute (NCI) Developmental Therapeutics Program Chemical Repository. The FDA-approved anticancer drug set is available from the NCI Developmental Therapeutics Program. […] The stock solutions were prepared in dimethyl sulfoxide (DMSO, Sigma-Aldrich, St. Louis, MO, cat. D2650) at 800-fold the tested concentration and stored at -70 degrees C prior to their use. All drugs and investigational agents were tested over a range starting from a high concentration at or near the clinical Cmax and decreasing in half-log increments. If the clinical Cmax for an agent had not been determined, the highest concentration tested was 10 microM.
Cell Culture. All cells were maintained in an incubator at 37 degrees C and 5% CO2 with 95% humidity. The PDC lines were cultured according to standard operating procedures established by the NCI PDMR (https://pdmr.cancer.gov/sops/default.htm). All PDCs were thawed and cultured in Matrigel-coated flasks prepared with a working solution of 1X Ham's F-12 nutrient mix, without supplementation (Invitrogen, Waltham, MA, cat. 11765054), 100 U/mL penicillin-streptomycin (Invitrogen, cat. 15140122), and 2.5% Matrigel (Corning Inc., Corning, NY, cat. 354248) for the first three passages. The 354836-022-R-J1-PDC, 475296-252-R-J1-PDC, and 997726-040-R-J2-PDC lines were cultured in 6A media, which includes advanced DMEM/F-12 (Thermo Fisher Scientific, cat. 12634028), 10 mM HEPES (Thermo Fisher Scientific, cat. 15630080), 1X GlutaMAX supplement (Thermo Fisher Scientific, cat. 35050061), 0.1 mg/mL primocin (InvivoGen, San Diego, CA, cat. ant-pm-2), 10% defined fetal bovine serum, heat inactivated (HyClone Laboratories Inc., Logan, UT, cat. SH30070.03HI), 50% L-WRN conditioned media (ATCC, cat. CRL-3276), 1.25 mM N-Acetyl-L-cysteine (Sigma-Aldrich, cat. A9165), 10 mM nicotinamide (Sigma-Aldrich, cat. N0636), 1X B-27 supplement (Thermo Fisher Scientific, cat. 17504044), 1X N-2 supplement (Thermo Fisher Scientific, cat. 17502048), and 10 microM Y-27632 dihydrochloride (Tocris Bioscience, Bristol, United Kingdom, cat. 1254). The 624824-186-R-J2-PDC line was cultured in 6C/Colon 1B media, which includes all 6A media components plus 50 ng/mL human EGF recombinant protein (Thermo Fisher Scientific, cat. PHG0311). […]
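Also: spheroids exposed to agents for 7 days before the viability read.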

What is called IC50 is the midpoint of a concentration-inhibition curve. Turning to `C=CC(=O)N1CCN(c2nc(=O)n(-c3c(C)ccnc3C(C)C)c3nc(-c4c(O)cccc4F)c(F)cc23)C(C)C1` (configuration not stated), the IC50 was 31.6 nM and > 10 µM.

On to `CCN1CCN(Cc2ccc(Nc3ncc(F)c(-c4cc(F)c5nc(C)n(C(C)C)c5c4)n3)nc2)CC1`, for which the IC50 is 223 nM, 270 nM, > 1 µM, 492 nM.

Usually viability, T/C stands for the result in the treated group divided by that in the control group, in per cent. In the case of `CC(Cn1ccc(-c2ccc(C#N)c(Cl)c2)n1)NC(=O)c1cc(C(C)O)[nH]n1` (configuration not stated), the viability, T/C (compound alone 0.0316 µM) is 88.5, 103, 114, 105%.

Consider `CCCS(=O)(=O)Nc1ccc(F)c(C(=O)c2c[nH]c3ncc(-c4ccc(Cl)cc4)cc23)c1F`, for which the viability, T/C (compound alone 1 µM) was 90.2, 87, 84.2, 111%.

As to `CNC(=O)c1ccc(N2C(=S)N(c3ccc(C#N)c(C(F)(F)F)c3)C(=O)C2(C)C)cc1F`, the viability, T/C is reported as 101, 70.9, 90, 99% (compound alone 0.1 µM) and 81.7, 67.3, 92.5, 75.3% (compound alone 10 µM).

On to `Cn1ncc(Cl)c1-c1cc(C(=O)NC(CN)Cc2cccc(F)c2)sc1Cl` (configuration not stated), for which, where the note is “compound alone 10 µM”, the viability, T/C was 4.88, 85.5, 5.74, 6.65%.

Consider `C[C@@H](NC(=O)c1ncnc(N)c1Cl)c1ncc(C(=O)Nc2cc(C(F)(F)F)c(Cl)cn2)s1`, for which the viability, T/C (compound alone 0.0316 µM) is recorded as 97.5, 80.8, 101, 112%.

Turning to `CC(Nc1ncnc2nc[nH]c12)c1cc2cccc(Cl)c2c(=O)n1-c1ccccc1` (configuration not stated), for the setting “run of 04/25/2023”, the IC50 was > 10 µM, 5.19 µM, 7.96 µM, 8.19 µM.

On to `CC1(C)CCC(CN2CCN(c3ccc(C(=O)NS(=O)(=O)c4ccc(NCC5CCOCC5)c([N+](=O)[O-])c4)c(Oc4cnc5[nH]ccc5c4)c3)CC2)=C(c2ccc(Cl)cc2)C1`, for which the viability, T/C is, setting by setting: (compound alone 0.1 µM) 96, 69.6, 85.8, 83%; (compound alone 0.316 µM) 118, 102, 88.9, 88.4%; (compound alone 10 µM) 3.72, 3.92, 54, 91.1%.
